Results published in publication PMC6919601, “Identification of Plasmodium dipeptidyl aminopeptidase allosteric inhibitors by high throughput screening” (PLoS ONE, 2019).
The whole screen tested about 110,000 compounds, of which about 230 (0.21%) showed an effect of 50% or more. The list shows a part of the results.

Molecular target: DPAP1 (Plasmodium falciparum, UniProt Q8IIJ9)
Experiment: primary screen, percent inhibition; read by cleavage of a fluorogenic dipeptide substrate; higher = more effect of the substance
Parameters: species or system P. falciparum D10 trophozoite lysates; single well
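Also: 30 min substrate incubation versus DMSO and 10 µM JCP410 controls.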

Chain of DPAP1 (Q8IIJ9 whole entry, looked up): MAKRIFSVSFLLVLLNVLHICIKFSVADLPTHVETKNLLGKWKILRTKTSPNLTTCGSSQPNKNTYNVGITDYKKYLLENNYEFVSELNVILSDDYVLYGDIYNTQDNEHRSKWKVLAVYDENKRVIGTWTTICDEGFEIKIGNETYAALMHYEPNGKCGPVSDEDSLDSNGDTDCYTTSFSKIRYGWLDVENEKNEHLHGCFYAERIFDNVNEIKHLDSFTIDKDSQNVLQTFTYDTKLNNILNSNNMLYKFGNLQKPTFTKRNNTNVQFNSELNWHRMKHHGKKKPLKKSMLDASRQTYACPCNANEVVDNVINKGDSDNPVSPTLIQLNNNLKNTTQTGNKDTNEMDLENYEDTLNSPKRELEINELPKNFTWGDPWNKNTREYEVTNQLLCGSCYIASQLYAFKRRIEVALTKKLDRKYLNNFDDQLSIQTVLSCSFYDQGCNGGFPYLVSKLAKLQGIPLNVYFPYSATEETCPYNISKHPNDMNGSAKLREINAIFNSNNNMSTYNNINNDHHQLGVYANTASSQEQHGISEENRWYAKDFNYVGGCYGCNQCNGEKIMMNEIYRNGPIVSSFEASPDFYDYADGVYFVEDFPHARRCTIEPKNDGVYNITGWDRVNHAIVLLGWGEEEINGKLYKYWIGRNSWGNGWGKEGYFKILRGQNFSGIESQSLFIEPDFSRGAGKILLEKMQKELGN

SMILES	% Inhibition @ 10 uM [%]
O=C(COC(=O)c1ccccc1F)c1ccc(Br)cc1	-4.26
O=C(Nc1cccc2cccnc12)c1cccc(C(=O)Nc2cccc3cccnc23)n1	-0.318
CC1=NCCN1CCOC(c1ccccc1)c1ccc(Cl)cc1Cl (stereo not shown)	0.472
Cn1ncc2c(NC34CC5CC(CC(C5)C3)C4)ncnc21	-2.14
N#CC1=C(N)Oc2[nH]nc(-c3ccccc3)c2C1c1cccc(O)c1 (stereo not shown)	4.32
CC1(C)CC(=O)C2=C(C1)N=C(S)C(C#N)C21CCCCC1 (stereo not shown)	41.6
COC(=O)c1cc(S(=O)(=O)N2CCN(Cc3ccccc3)CC2)c[nH]1	3.35
Cc1ccc(OCCCc2c(C)n[nH]c2C)cc1C	1.83
CCCCCn1c(=O)c(C(=O)Nc2nc3ccccc3s2)c(O)c2ccccc21	-10.8
COc1ccc(CC(=O)Nc2ccc(S(=O)(=O)N3CCCC3)cc2)cc1	-1.17
CCOCCCNC(=O)C1CCN(c2nnc(C)c3c(C)n(-c4ccccc4)nc23)CC1	2.14
CCOc1ccc(-c2[nH]nc3c2C(c2cc(OC)ccc2OC)NC3=O)cc1 (stereo not shown)	0.708
O[C@]12CCCC[C@@H]1[C@@H](c1ccc3c(c1)OCO3)NCC2	-0.415
CC(C)(C)c1ccc(C(=O)Nc2ccc3c(c2)OCO3)cc1	5.29
CCO/C(O)=C1/C(C)=Nc2nc(N)nn2C1c1ccccc1OC (stereo not shown)	-1.62
COc1ccc(NS(=O)(=O)c2ccc(NC(=O)c3ccn(C)n3)cc2)cc1	4.44
CCc1nc(C)cc(N)c1OCc1ccccc1	-4.51
COc1ccc(NC(=N)Nc2nc(O)c3c(n2)CCC3)cc1	4.59
Cc1ccccc1OCc1nc(C#N)c(NCCc2ccccc2)o1	-1.98
CSCCCN1CC(C)OC(C)C1 (stereo not shown)	0.217
O=C1C2C(C(=O)N1c1ccccc1Br)C1C=CC2C12CC2 (stereo not shown)	-2.8
CCN(CC)CCCNC(=O)C1CCC(CNS(=O)(=O)c2ccc(Cl)cc2)CC1 (stereo not shown)	2.35

SMILES	% Inhibition @ 10 uM [%]
COc1ccc(N(CC(=O)NC2CCCCC2)S(=O)(=O)c2ccccc2)cc1OC	3.26
COc1ccccc1OCCSc1nc2ccccc2[nH]1	0.716
COc1ccc(NC(=O)CN(c2ccccc2F)S(=O)(=O)c2ccccc2)cc1OC	-1.95
Cc1ccc(N2C(=O)CSC2=S)cc1	0.317
CCc1nn2c(=O)cc(COc3ccc(/C=C4/C(=N)N5C=C(C)SC5=NC4=O)cc3)nc2s1	-2.19
CC1CCN(C(=O)C2CCCN(S(=O)(=O)c3ccc4[nH]c(-c5ccccc5)nc4c3)C2)CC1 (stereo not shown)	0.309
O=C(Nc1nc(-c2ccccc2)cs1)c1ccccc1	-7.01
CC1=C(C#N)C(c2ccccc2F)C2=C(O)c3ccccc3C2=N1 (stereo not shown)	-4.49
COC(=O)c1sccc1NC(=O)Nc1cn(C)c(=O)c2ccccc12	6.99
Oc1cc(-c2ccccc2)nn1-c1nc(-c2ccccc2)cs1	0.634
CC12CCC(c3c1nc1ccccc1[n+]3[O-])C2(C)C (stereo not shown)	5.69
Cc1ccc(CS(=O)Cc2ccc(C(=O)NCCN(C)C)o2)cc1 (stereo not shown)	0.401
O=C(Nc1sc2c(c1C(=O)NCC1CCCO1)CCCC2)c1ccccc1F (stereo not shown)	1.93
CC(CNC(=O)Cn1cccc1C(=O)c1ccccc1)c1ccccc1 (stereo not shown)	10.1
CCOC(=O)CCS(=O)(=O)c1ccc(Br)cc1	4.12
CCOc1cc(C2C(C#N)=C(N)Oc3[nH]nc(-c4cccs4)c32)cc(Br)c1O (stereo not shown)	-1.98
COC(=O)c1cc(S(=O)(=O)NCCc2ccc(Cl)cc2)cn1C	-2.84
Clc1cccc(N2CCN(Cc3ccco3)CC2)c1	-1.07
Cc1ccc(/C(=C\N(C)c2ccccc2)S(=O)(=O)N2CCOCC2)cc1	-0.231
CCOc1ccccc1CNC(=O)Cn1sc2ccccc2c1=O	-9.13
N#CC1=C(N)N(c2ccccc2)C2=C(C(=O)CCC2)C1c1cccnc1 (stereo not shown)	0.687
CCN(C(=O)c1cccc(C)c1)c1ccccc1C	-0.856

SMILES	% Inhibition @ 10 uM [%]
CCOc1ccc(-n2c(CN3CCN(C(=O)c4ccco4)CC3)nc3ccccc3c2=O)cc1	-3.56
Cc1ccc(-c2nc(CS(=O)(=O)CC(=O)NCCN3CCOCC3)c(C)o2)cc1	-0.138
Cc1cccc(-c2noc(CNC(=O)c3ccccc3)n2)c1	5.29
N#C/C(=C\N1CCOCC1)c1ccccc1	1.63
O=S(=O)(c1ccc(Sc2ccc(Cl)cc2)cc1)c1ccc(Sc2ccc(Cl)cc2)cc1	-3.55
COc1ccc(C2CC(C(F)(F)F)n3ncc(C(=O)Nc4ccc(C(C)O)cc4)c3N2)cc1OC (stereo not shown)	0.147
Cc1cccc(N(CC(=O)N2CCN(c3ccccc3F)CC2)S(C)(=O)=O)c1C	9.11
COC(=O)c1c(C)sc2c1OC(N)=C(C#N)C2c1sc2ccccc2c1C (stereo not shown)	2.62
O=C(Nc1ccccc1)N1CCc2scc[n+]2-c2ccccc21	-1.17
CNC(=O)CCCc1nc(-c2ccccc2OC)no1	-1.15
O=C(Nc1ccc(Cl)c(C(F)(F)F)c1)c1cccs1	2.26
O=C(CN1C(=O)c2ccccc2C1=O)N1CCN(c2ccc(Cl)cc2)CC1	-0.0555
O=C(Nc1cccc(Cl)c1)Nc1cccc(C(F)(F)F)c1	1.96
Nc1c(C(=O)c2ccccc2)sc2nc(-c3cccs3)cc(C(F)(F)F)c12	-3.13
CC(=O)c1ccc(NC(=O)COc2cc(C)cc(C)c2)cc1	-2.73
CN1CCN(c2ccc3nnc(CCC(=O)NC4CCN(Cc5ccccc5)CC4)n3n2)CC1	-0.264
Cc1ccc(N(CC(O)CN2CCOCC2)S(=O)(=O)c2ccccc2)cc1 (stereo not shown)	-1.26
CCCN1CCC(NC(c2ccccc2)c2ccc(Cl)cc2)CC1 (stereo not shown)	-7.93
O=C(/C=C/c1ccccc1)N1CCCCC1	4.81
CC(C)C[C@H](NC(=O)CNC(=O)OC(C)(C)C)C(=O)NCC#N	-3.48
